Among the data in PubChem BioAssay AID463173 (ICCB-Longwood Screening Facility, Harvard Medical School, 2010) are survival values, retold here.

Each structure is given as a SMILES string. Hit rate of the full screen: of about 52,000 compounds, about 1,700 (3.3%) were called active. Cut-off read from the data, not from the text of the source: active = survival mostly below about 52% (no sharp cut-off); inactive = mostly above about 56%. This is one part of the list.

For this assay, the system named is Wild type. Nature of the assay: growth inhibition of S. aureus wild type versus tarO mutant, primary screen, teichoic acid synthesis inhibitors, RN4220, OD600 (AID 463173). Conditions: S. aureus RN4220 wild type/DeltatarO growth, OD600, 18 h, hits give low values, screened at 18.75 µg/mL (by protocol).
With `CCOc1ccccc1CNC(=O)c1cc(-c2ccc(Cl)s2)nc2ccccc12`, the survival is inactive: 90%. With `CCOC(=O)c1ccc(NC(=O)C2CCN(S(=O)(=O)c3ccc4c(c3)CCCC(=O)N4)CC2)cc1` the figure was inactive: 59%; with `Cc1cc(OCC(=O)NCC2(N3CCN(C)CC3)CCCCC2)cc(C)c1Cl`, inactive: 80%; with `Cc1c(Cl)cccc1N=C1NC(=O)CS1`, inactive: 116%. As for `COc1ccc(-c2cc(NCc3ccc(F)cc3)n3cnnc3n2)cc1`, the survival is inactive: 72%. For `O=C(Cc1ccccc1)Nc1sc2c(c1C(=O)Nc1ccccc1Cl)CCC2` the value was inactive: 46%; for `CCn1c(SCc2ccccc2)nnc1-c1cccnc1`, inactive: 99%; for `Cc1nn(CC(=O)NCCc2ccc(Cl)cc2)c(=O)c2cc3cc(F)ccc3n12`, inactive: 74%. For `CCCN1C(=O)C(Cc2nc3ccccc3c(=O)n2CC)c2ccccc21` (stereo not given) the value was inactive: 82%; for `CCCc1cc(N2CCN(c3cc(Cl)ccc3C)CC2)n2cnnc2n1`, inactive: 41%; for `COc1ccc(CNC(=O)Cn2nc(C)c3nn(-c4ccc(Cl)cc4)c(C)c3c2=O)cc1`, inactive: 69%. With `Cc1cc(N2CCCC(O)C2)nc(C)n1` (stereo not given) the figure was inactive: 113%; with `Cc1ccc(NC(=O)CCc2nnc3n(CC(C)C)c(=O)c4ccccc4n23)cc1C`, inactive: 92%.

For `Cc1ccc(-n2nc3c(N4CCC(C(=O)N5CCCCC5)CC4)nnc(C)c3c2C)cc1`, the survival was inactive: 94%. For `O=S(=O)(c1ccccc1)c1nnn2c1nc(NCc1cccs1)c1sccc12`, the survival was inactive: 87%. In the case of `Cc1ccc2oc(C(=O)Nc3c(C(=O)Nc4ccccc4)oc4ccccc34)cc(=O)c2c1`, the survival is inactive: 81%.

`CCCOc1ccc(N2CC(C(=O)Nc3cccc(Cl)c3Cl)CC2=O)cc1` (stereo not given): the survival was inactive: 160%. With `CCOc1ccc(CCNC(=O)CN2C(=O)COc3ccc(S(=O)(=O)N4CCC(C)CC4)cc32)cc1` the figure was inactive: 73%. For `Cc1ccc(NC(=O)CCn2cccn2)cc1Cl` the value was inactive: 68%; for `Cc1cc(C)cc(Nc2cc(-c3ccccc3)nc(C)n2)c1`, active: 10%. For the compound `c1ccc2c(c1)oc1c(NC3CCCC3)ncnc12`, the survival was inactive: 123%. Regarding `COc1ccc(NC(=O)Cn2c(=O)n(-c3ccccc3)c(=O)c3c4c(sc32)CCCC4)cc1`, the survival was inactive: 110%. Take `COC(=O)c1c(NC(=O)c2cc3nc(-c4ccc(OC)cc4)cc(C(F)(F)F)n3n2)sc2c1CCCC2`: the survival is inactive: 73%. On to `Cc1ccc(NC2=CC(c3ccccc3F)N(c3ccc(C)cc3)C2=O)cc1` (stereo not given), for which the survival was inactive: 61%.

On to `CCCCN(C)c1nnc(NC(=O)Nc2cccc(C(C)=O)c2)s1`, for which the survival is inactive: 109%. `O=C(CN1C=NS(=O)(=O)c2ccccc21)Nc1ccc(F)cc1`: the survival was inactive: 82%. For `COc1ccc(-c2cc3nc(C)c(CCC(=O)N4CCN(c5cccc(Cl)c5)CC4)c(C)n3n2)c(OC)c1` the value was inactive: 66%; for `O=C(NCc1cccs1)c1ccc2c(c1)N(Cc1ccccc1Cl)C(=O)c1ccccc1S2`, inactive: 69%. With `COc1cccc(CNC(=O)C2CCN(c3ncccn3)CC2)c1` the figure was inactive: 102%.

`CCOc1ccccc1NC(=O)C(Cc1ccccc1)NS(=O)(=O)c1ccc2c(c1)oc(=O)n2C` (stereo not given): the survival is inactive: 73%. With `CC(C)Cn1c(=O)c2ccccc2n2c(CCC(=O)NCc3ccccc3Cl)nnc12`, the survival is inactive: 87%.

In the case of `COc1ccc(-c2cc(C(=O)OCC(=O)c3ccc(C)cc3)c3cccc(Cl)c3n2)cc1`, the survival is inactive: 82%. As for `Cc1ccccc1-c1ncnn1-c1sc2c(c1C#N)CCCCC2`, the survival was inactive: 65%.

As for `O=C1NC(=O)C2C3c4ccccc4C(c4ccccc43)C12` (stereo not given), the survival was inactive: 117%. Turning to `C=CCn1c(SC)nc2c1c(=O)[nH]c(=O)n2C`, the survival is inactive: 99%.

On to `CN(C(=O)c1cc(-c2ccccc2)on1)C1CCCCC1`, for which the survival is inactive: 118%. `COc1ccc(CNC(=O)c2cc3cc(C)ccc3n2C)cc1`: the survival was inactive: 89%. For `CC(=O)NCCNC(=O)CCCc1nnc2n(C)c(=O)c3sccc3n12` the value was inactive: 86%; for `COc1ccc(-n2nnnc2SCSc2nnnn2-c2ccc(OC)cc2)cc1`, inactive: 113%; for `Cc1sc2c(c1C)c(=O)n(CCc1ccccc1)c(=O)n2Cc1cccc(F)c1`, active: 9%. For `O=C(NCc1ccccc1Br)c1ccc2nc(N3CCCCC3)sc2c1` the value was inactive: 81%. For `CCCCN(CCCC)C(=O)CN(C)S(=O)(=O)c1ccc2c(c1)c(=O)n(C)c(=O)n2C` the value was inactive: 124%; for `CC(Nc1ccc(-c2nc(-c3ccncc3)no2)cc1[N+](=O)[O-])c1ccccc1` (stereo not given), inactive: 87%; for `O=C(Nc1cc(F)ccc1F)C1CCN(c2nc3ccccc3n3cccc23)CC1`, inactive: 84%. For the compound `COCCNC(=O)Cn1cc(/C=C(\C#N)C(N)=O)c2ccccc21`, the survival was inactive: 114%.

On to `Cc1ccc(-n2c(=O)c3c(c4cc(C)ccc4n3C)n(CC(=O)NCc3ccccc3Cl)c2=O)cc1`, for which the survival was inactive: 66%.

`COc1ccc2oc(=O)cc(CN3CCN(c4ccc(F)cc4)CC3)c2c1`: the survival is inactive: 72%. For `CCCCNC(=O)C(CC)Sc1nnc(-c2cccc(F)c2)c(-c2cccc(F)c2)n1` (stereo not given) the value was inactive: 71%; for `Cc1cccc(C(=O)Nc2ccc(-c3nc4ccccc4s3)cc2Cl)c1`, inactive: 59%; for `CCCCOC(=O)c1ccc(Nc2ncnc3[nH]ncc23)cc1`, inactive: 65%. With `COc1ccc(CCC(=O)NC2CC(=O)N(c3ccc(C)cc3)C2)cc1` (stereo not given) the figure was inactive: 69%; with `Cc1cccc(NC(=O)Cn2c(=O)n(-c3ccccc3Cl)c(=O)c3c(C)c(C(=O)N(C)C)sc32)c1`, inactive: 72%. Consider `CCOC(=O)c1ccc(NC(=O)CN(c2ccc(C)cc2)S(=O)(=O)c2c(C)noc2C)cc1`, for which the survival is inactive: 110%. Take `Cc1nc2c(C(=O)NCCc3ccc(Cl)cc3)cnn2c(C)c1Cc1c(F)cccc1Cl`: the survival was inactive: 59%.

With `Oc1ccccc1C1OCC(C2CC=CCC2)CO1` (stereo not given), the survival was inactive: 110%. `Cc1cc(C)cc(N2CC(c3nc(-c4ccccc4C)no3)CC2=O)c1` (stereo not given): the survival is inactive: 95%. With `CC(=O)Nc1c(C)nn(-c2ccccc2)c1N1CCC(C(=O)NCc2ccc(Cl)cc2)CC1` the figure was inactive: 81%. With `Cc1ccccc1CNC(=O)C(C)n1nc(C)n2c(cc3occc32)c1=O` (stereo not given) the figure was inactive: 64%; with `O=C(CN1C(=O)c2ccccc2C1=O)OC(C(=O)NC1CCCC1)c1ccncc1` (stereo not given), inactive: 105%; with `COc1ccc(NC(=O)C2=CC(c3cccs3)=NS(=O)(=O)N2C)cc1`, inactive: 92%. For `Cc1ccc(NC(=O)CN2C(=O)CCSc3ccc(S(=O)(=O)N4CCCC4)cc32)cc1` the value was inactive: 91%; for `COc1ccc(CC(=O)Nc2nc3c(s2)CC(C(C)(C)C)CC3)cc1` (stereo not given), inactive: 70%; for `CCn1c(CNC(=O)c2ccc(OC)cc2)nnc1SCC(=O)Nc1ccc(OC)cc1`, inactive: 131%. Consider `CCc1ccc(-c2nc(CSCC(=O)NCc3ccccc3OC)c(C)o2)cc1`, for which the survival is inactive: 78%. For `Cc1ccc(-c2nc3c(c(SCC(=O)N4CCCCC4)n2)Cc2cc(C)ccc2O3)cc1` the value was inactive: 70%; for `COc1ccc(-c2nc3scc(CCNS(=O)(=O)c4ccc(F)cc4F)n3n2)cc1OC`, inactive: 64%.

Regarding `CC(C)NC(=O)Nc1ccc2c(c1)N(C)C(=O)c1ccccc1S2`, the survival is inactive: 121%. For `O=C(NCCc1ccccc1)c1ccc2c(c1)N(Cc1ccccc1Cl)C(=O)c1ccccc1S2` the value was inactive: 74%; for `CCOc1ccc(CC(=O)Nc2ccc3nc(N4CCCCC4)cc(C)c3c2)cc1OCC`, inactive: 101%. For `COc1ccccc1CNC(=O)C(Cc1ccccc1)NS(=O)(=O)c1ccc2c(c1)oc(=O)n2C` (stereo not given) the value was inactive: 80%. Consider `CCOC(=O)c1cccc(NC(=O)CSc2ncc3c(n2)-c2ccccc2N(C)S3(=O)=O)c1`, for which the survival is inactive: 47%. For `O=C1CC(c2nc3ccccc3n2CCCCOc2ccccc2)CN1c1ccccc1Cl` (stereo not given), the survival is inactive: 61%. For `CC1CCCCN1Cc1c(O)ccc2c(=O)c(-c3cccc(Cl)c3)c(C(F)(F)F)oc12` (stereo not given) the value was inactive: 69%; for `CCc1nnc(NC(=O)CSc2nc3c([nH]c4ccccc43)c(=O)n2-c2cc(C)cc(C)c2)s1`, inactive: 76%; for `CCOc1ccc(Cn2c(=O)oc3ccccc32)cc1`, inactive: 114%. For the compound `O=C(C1CCC(CNS(=O)(=O)c2ccc(Br)s2)CC1)N1CCN(c2ccccc2)CC1` (stereo not given), the survival was inactive: 68%. Regarding `Clc1cccc(CNc2ncnc3c2nc2n3CCCC2)c1`, the survival was inactive: 92%. With `Cc1nnc(SCc2cc(=O)n3c(C)cccc3n2)s1` the figure was inactive: 81%; with `COc1ccc(-n2ncc3c(N4CCN(c5cccc(C)c5)C(C)C4)ncnc32)cc1` (stereo not given), inactive: 127%; with `Cc1ccc(-c2noc(COc3ccc(Br)c(C)c3)n2)cc1`, inactive: 124%. For `COc1ccc(Cl)cc1NC(=O)CCc1nc(-c2ccccc2F)no1` the value was inactive: 38%. For `Cc1c(C(=O)N2CCCC2)oc2c1-c1nn(CC(=O)NCc3cccc(Br)c3)cc1CC2` the value was inactive: 87%; for `CC1S/C(=N\C(=O)Nc2ccc(Cl)cc2)NC1=O` (stereo not given), inactive: 103%.

`NS(=O)(=O)c1ccc(NC(=O)CCn2c(=O)oc3ccccc32)cc1`: the survival is inactive: 69%.

On to `O=C(Cn1c(=O)n(Cc2ccc3c(c2)OCO3)c(=O)c2ccccc21)Nc1cccc(Cl)c1`, for which the survival was inactive: 60%. Regarding `OC1(c2ccccc2F)CCN(CCN2CCCCC2)CC1`, the survival was inactive: 104%. With `COC(=O)C1C(=O)C2=C(CC1C)Nc1ccccc1NC2c1ccc(N(C)C)cc1` (stereo not given) the figure was inactive: 102%. With `Cn1c(=O)oc2cc(S(=O)(=O)CCC(=O)NCc3ccccc3)ccc21` the figure was inactive: 73%. With `CCOc1ccc(N2CC(c3nc(-c4cc(OC)c(OC)c(OC)c4)no3)CC2=O)cc1` (stereo not given) the figure was inactive: 75%.

Turning to `CCOc1ccc(N(C)S(=O)(=O)c2ccc3c(c2)C(C)(C)C(=O)N3C)cc1`, the survival was inactive: 84%.
